Experimental data taken from PubChem BioAssay AID624202 (National Center for Advancing Translational Sciences (NCATS), 2012).
The whole screen tested about 380,000 compounds, of which about 4,000 (1.1%) were called active. Inconclusive means that the source gave no clear call. Such entries were picked first, then a sample of the others. Calls follow the shape of the dose curve; as a rule, active = well fitted activation curve with a large enough effect; inconclusive = small, poorly fitted or top-dose-only effect; inactive = no such curve, though single readings can be large or run the other way. Potencies beside an inconclusive call are fits to weak or partial responses and may not hold up.

experiment: qHTS Assay to Identify Small Molecule Activators of BRCA1 Expression; settings: MCF7-BRCA1-FFLuc reporter, luminescence, 48 h; activation: at 46.1 µM (top of the series), scaled: vehicle 0%, 10 µM genistein 100% unless noted; also: nearly all actives have a fitted effect of over 80% in size
Outline: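 Quantitative HTS in MCF7 cells stably reporting BRCA1 expression via firefly luciferase. Compound treatment lasts 48 h at 37 °C in phenol-red free MEM. Activation is expressed relative to genistein at 10 microM and DMSO.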
Potency is read from the fitted curve at half-maximal effect; tags tell the direction and shape of the fitted curve.

Structure (SMILES)	Potency	activation
O=C(COC(=O)c1ccc(-c2nnc(-c3ccccc3)o2)cc1)c1ccccc1	inconclusive: 0.891 µM [activator, full curve, poor fit]	–
Cc1ccc(C(=O)Nc2sc3c(c2C#N)CCCCC3)cc1C	inconclusive: 1.41 µM [activator, partial curve, poor fit]	–
CC(C)SCCCCOc1ccc2ccccc2c1	active: 8.91 µM	–
CC1CC(C)CN(C(=O)c2cccc(S(=O)(=O)Nc3cc(C(F)(F)F)ccc3Cl)c2)C1 (stereo not drawn)	–	inactive: -1.11%
Cc1ccc(NC(=O)Nc2ccon2)cc1	inconclusive: 11.2 µM [activator, partial curve, poor fit]	–
O=C(Nc1ccn(-c2ccccc2)n1)c1ccccc1Br	inconclusive: 11.2 µM [activator, partial curve, poor fit]	–
CCOCCC(=O)Nc1ccc2c(c1)c(=O)n(C)n2C/C=C/c1ccccc1	–	inactive: -48.3%
Cc1cccc(OCC(=O)N2CCC(c3ccccc3)C2)c1 (stereo not drawn)	active: 7.94 µM	–
COC(C[C@H]1O[C@@H]1C(=O)COCc1ccccc1)OC	–	inactive: -12.7%
CN(c1ccc(O)cc1)c1nc(-c2cccs2)cs1	inconclusive: 2.51 µM [activator, partial curve, poor fit]	–
CCC1S/C(=N/C(=O)NC2CCCCC2)NC1=O (stereo not drawn)	–	inactive: 76.3%
O=C(Nc1ccc(F)cc1F)N1CCC(c2nc3ccccc3o2)CC1	inconclusive: 25.1 µM [activator, partial curve, poor fit]	–
Nc1nc2ccc(Oc3ccccc3)cc2s1	inconclusive: 1.58 µM [activator, full curve, poor fit]	–
COC(=O)c1c(C)[nH]c(C(=O)OCC(=O)c2c(N)n(CC(C)C)c(=O)n(C)c2=O)c1C	–	inactive: -46.9%
C/C(=N\OC(=O)c1cccc(C)c1)c1sc(-c2ccccc2)nc1C	inconclusive: 1.26 µM [activator, full curve, poor fit]	–
O=C(Nc1ccc(Nc2ccccc2)cc1)c1ccccc1	active: 3.55 µM	–
Nc1ccc(OCc2ccco2)cc1	inconclusive: 20 µM [activator, single point]	–
Clc1ccccc1CONc1ncnc2nonc12	active: 10 µM	–
CCOC(=O)C1CCN(C(=O)c2cc3c(ccc4ccccc43)o2)CC1	–	inconclusive: 149% [activator]
O=C(NCCc1c[nH]c2ccccc12)C(=O)Nc1ccccc1	active: 11.2 µM	–
Fc1cc(F)c2nc(N3CCOCC3)sc2c1	active: 12.6 µM	–
Cc1cc2oc(=O)cc(CN(C)Cc3ccccc3F)c2cc1Cl	inconclusive: 7.08 µM [activator, partial curve, poor fit]	–
CCOC(=O)c1sc2ncn(CC(=O)Nc3ccc(N(C)C)cc3)c(=O)c2c1C	–	inactive: 7.47%
Cc1ccc(-c2nc(C)c(CCNC(=O)c3ccco3)s2)cc1	inconclusive: 35.5 µM [activator, single point]	–
COc1ccc(-c2nc3sc(CCNC(=O)c4cc(OC)c(OC)c(OC)c4)c(C)n3n2)cc1	active: 7.94 µM	–
CC(C)(C)C(=O)Nc1ccc(N2CCN(c3ccc(C(F)(F)F)cn3)CC2)nc1	–	inactive: -6.57%

Structure (SMILES)	Potency	activation
COCCn1c(C(=O)N(C)C)cc2c1C[C@H]1CN(C(=O)c3ccccc3)[C@@](Cc3ccc(F)cc3)(C(=O)OC)[C@@H]21	–	inactive: 4.04%
CCOC(=O)c1cnn(-c2ccc(C)cc2)c1N	active: 11.2 µM	–
CC1(C)CCC(=O)N2CC[C@H]3C[C@H](OC(=O)Nc4ccccc4)C[C@@H]1[C@H]32	inconclusive: 10 µM [activator, partial curve, poor fit]	–
FC(F)(F)c1cc(Cl)c2nc(-c3ccccc3)c(Cc3ccccc3)n2c1	–	inactive: 14.7%
COc1cccc(NC(=O)Nc2ccc(Br)cn2)c1	active: 11.2 µM	–
Cc1ccc(C(=O)N/N=C2\CCc3ccccc32)c(C)c1	inconclusive: 0.794 µM [activator, full curve, poor fit]	–
CCc1ccc(-c2csc(NC(=O)C3=COCCO3)n2)cc1	inconclusive: 1 µM [activator, full curve, poor fit]	–
COc1ccc(C(=O)NNc2ccccc2)cc1	–	inactive: 19.8%
O=C(CNC(=O)C1CCCCC1)NC1CCCCC1	inconclusive: 35.5 µM [activator, single point]	–
Fc1ccccc1NC(=S)N/N=C/c1ccccc1Br	–	inactive: 1.02%
Cc1ccc(CNC(=O)c2ccc3nc(N4CCCCC4)sc3c2)cc1	inconclusive: 0.562 µM [activator, full curve, poor fit]	–
O=C(NC1CCCC1)c1cc(-c2cccc(Cl)c2)on1	inconclusive: 2 µM [activator, full curve, poor fit]	–
CCOc1ccc(C(=O)N/N=C/c2ccccc2[N+](=O)[O-])cc1	inconclusive: 2.24 µM [activator, full curve, poor fit]	–
CCOc1cc(C2NN=C(c3ccc(C)cc3)S2)ccc1O (stereo not drawn)	inconclusive: 3.16 µM [activator, partial curve, poor fit]	–
COc1ccc(NC(=S)c2ccccc2)cc1	active: 7.94 µM	–
NC(=O)C1CCN(C(=S)c2ccc(-c3ccc(Br)cc3)o2)CC1	–	inconclusive: 107% [activator]
Cc1ccsc1/C=C1\Oc2cc(O)ccc2C1=O	inconclusive: 8.91 µM [activator, partial curve, poor fit]	–
Cc1ccc(S(=O)(=O)NCC(=O)N/N=C/c2ccccc2O)cc1	–	inactive: -69.9%
Oc1ccc(/C=C/c2ccc3cccc(O)c3n2)cc1Br	inconclusive: 35.5 µM [activator, single point]	–
CCn1ccc(C(=O)Nc2ncc(C)s2)n1	inconclusive: 1.26 µM [activator, full curve, poor fit]	–
Cc1ccc(-n2c(C)cc(/C=C3\SC(=O)NC3=O)c2C)cc1	inconclusive: 1.78 µM [activator, partial curve, poor fit]	–
CCN(CC)S(=O)(=O)c1ccc(N/N=C/c2cc(OC)c(OC)cc2OC)nc1	–	inactive: -13.6%
CC(=O)c1sc(NC(=O)c2ccc(F)c(F)c2)nc1C	inconclusive: 6.31 µM [activator, partial curve, poor fit]	–
Cc1cc(C(=O)Nc2ccc3c(c2)CCC3)ccc1[N+](=O)[O-]	inconclusive: 2.51 µM [activator, full curve, poor fit]	–
CN(C(=O)c1ccc(-c2ccccc2)cc1)C1CCCCC1	active: 2.82 µM	–
Cc1cc(C)n(-c2ccc(C(=O)Nc3nc4ccccc4s3)cc2)n1	inconclusive: 1 µM [activator, full curve, poor fit]	–

Structure (SMILES)	Potency	activation
CSC(=N/N=C(\N)c1cnccn1)SC	–	inactive: 1.57%
S=C(NCCc1c[nH]c2ccccc12)NC1CCCCC1	active: 11.2 µM	–
Cc1cc(C)cc(OCC(O)CN2CCC(CN3C(=O)c4cccc5cccc(c45)C3=O)CC2)c1 (stereo not drawn)	–	inactive: -48.3%
CC(=O)Nc1ccc2nc(-c3ccccn3)[nH]c2c1	inconclusive: 4.47 µM [activator, partial curve, poor fit]	–
O=C(/C=C\Nc1cccc(F)c1)c1ccc2c(c1)OCO2	–	inconclusive: -42% [activator]
Cc1nnc(NC(=O)CSc2nc3c([nH]c4ccccc43)c(=O)n2-c2ccc(Cl)cc2)s1	–	inactive: 13.5%
O=C(Nc1nc2ccccc2[nH]1)c1ccc(Cl)cc1	–	inconclusive: -32.7% [activator]
O=c1cc(N2CCOCC2)cnn1-c1ccccc1	inconclusive: 17.8 µM [activator, partial curve, poor fit]	–
Cc1ccc(/C=N/NC(=O)c2ccccn2)o1	active: 11.2 µM	–
O=C1C=CC2(O[C@H](c3ccccc3)[C@@H](c3ccccc3)O2)[C@H](Sc2ccccc2O)C1	–	inactive: -77.1%
CC(C)(C)Nc1nc(-c2ccc3c(c2)CCN3C(=O)C2CC2)cs1	inconclusive: 1.58 µM [activator, full curve, poor fit]	–
Cn1nccc1C(=O)Nc1ccc(Cl)cc1	inconclusive: 11.2 µM [activator, partial curve, poor fit]	–
O=C(Nc1ccccc1)Nc1ccc(Nc2ccccc2)cc1	active: 3.98 µM	–
CCc1cccc(NC(=O)c2cnn(-c3ccccc3)c2C)c1	inconclusive: 0.631 µM [activator, full curve, poor fit]	–
O=C1C(Nc2ccccc2)=C2CCCC=C2N1c1ccccc1	inconclusive: 20 µM [activator, single point]	–
O=C1C=CC(=O)c2c(O)c(N3CCN(CCO)CC3)c(Cl)c(O)c21	–	inactive: -98%
C=CCSc1nnc(-c2ccc(Cl)cc2Cl)o1	inconclusive: 2.51 µM [activator, full curve, poor fit]	–
Cc1ccsc1/C=N\NC(=O)c1ccc2c(c1)OCO2	inconclusive: 1.26 µM [activator, full curve, poor fit]	–
COc1ccccc1-c1noc(-c2ccccc2)n1	inconclusive: 6.31 µM [activator, full curve, poor fit]	–
O=C(Nc1ccc2[nH]ncc2c1)c1ccccc1Cl	active: 2.82 µM	–
Clc1ccc(-c2cc(COc3ccccc3)on2)cc1	active: 10 µM	–
N#Cc1c(N2C(=O)Nc3ccccc3N2O)sc2c1CCCC2	active: 11.2 µM	–
CC(=O)Nc1cccc(NC(=O)CSc2nc(C3CC3)nc3ccccc23)c1	–	inactive: -54.3%
N/C(=N\OC(=O)COc1ccc(Cl)cc1Cl)c1ccncc1	active: 1.12 µM	–
CC(C)C(=O)Nc1ccc(-c2csc(-c3ccccc3)n2)cc1	active: 5.01 µM	–
Cn1c(-c2cc3ccc(OC(=O)C(C)(C)C)cc3oc2=O)nc2ccccc21	inconclusive: 15.8 µM [activator, partial curve, poor fit]	–
